SMILES strings stand for the structures.

The test system of this data set is hESC-differentiated astrocytes.
`CC(C)(C)c1ccc(C(=O)CCCN2CCC(OC(c3ccccc3)c3ccccc3)CC2)cc1` [Ebastine]: the “Cytotoxicity to astrocytes (CTG)” value was “not to astrocytes”. The same measure for `COc1cccc2c1C(=O)c1c(O)c3c(c(O)c1C2=O)C[C@@](O)(C(=O)CO)C[C@@H]3O[C@H]1C[C@H](N2CCO[C@H](OC)C2)[C@H](O)[C@H](C)O1` [Nemorubicin]: “not to astrocytes”; for `C/C=C(/C)C(=O)O[C@H]1C(C)=C2[C@H]([C@@H]1OC(=O)CCCCCCC)[C@@](C)(OC(C)=O)C[C@H](OC(=O)CCC)[C@@]1(O)[C@H]2OC(=O)[C@@]1(C)O` [Thapsigargin]: “not to astrocytes”.

The values are drawn from publication PMC4835244 (Stem Cells Translational Medicine, 2016).
